# About 200 (0.062%) of roughly 320,000 compounds were called active. Inconclusive means that the source gave no clear call. Such entries were picked first, then a sample of the others. The call rests on the fitted dose curve; in most records, active means well fitted activation curve with a large enough effect; inconclusive means small, poorly fitted or top-dose-only effect; inactive means no such curve, though single readings can be large or run the other way. Potencies of inconclusive entries are left out as doubtful fits.
# Assay: qHTS assay for re-activators of p53 using a Luc reporter; further: nearly all actives have a fitted effect of over 45% in size; on activity change, positive = activation: % of control where 0% means no effect
# Details: H1299 p53-A138V BP100-luciferase reporter, luminescence, 24 h; series mostly up to 92.2 µM; activity change, positive = activation: at the top concentration
# Summary of the method: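 H1299 (p53-null), stable ts p53-A138V + BP100-Luc; 1000 cells/well, Opti-MEM/10% FBS; cpd 4 pt, 1:5; 24 h, 37 deg C, 5% CO2; detection reagent 10 min RT; luminescence.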
# Potency means the concentration at half of the fitted maximal effect; tags describe the fitted curve by direction and shape.
SMILES,Potency,"activity change, positive = activation"
Cc1cc(NC(=O)c2cccc(Br)c2)n[nH]1,"inconclusive [activator, full curve]",
CCC(CC)c1nnc(NC(=O)c2ccc3ccccc3n2)s1,"inconclusive [activator, full curve, poor fit]",
COc1ccc(NC(=O)c2cc3ccccc3cc2OC)cc1OC,,inactive: 1.03%
O=C(Cc1coc2ccc3ccccc3c12)NCc1cccs1,"inconclusive [activator, partial curve, poor fit]",
COCCNC(=O)c1cc(-c2ccc3c(c2)OCO3)on1,active: 20 µM,
CCOC(=O)c1cccc(NC(=O)/C=C/c2ccc3c(c2)OCO3)c1,"inconclusive [activator, full curve, poor fit]",
N#C/C(=N/Nc1ccc(OC(F)(F)F)cc1)C(N)=S,,inactive: 22.4%
Cc1cccc(Nc2n[nH]c(C)c2[N+](=O)[O-])c1,"inconclusive [activator, partial curve, poor fit]",
COc1ccc(C)cc1NC(=O)CCC(=O)Nc1ccc2nc(N3CCN(C)CC3)cc(C)c2c1,"inconclusive [activator, full curve, poor fit]",
Cc1ccc(NC(=S)N2CCC(c3ccc(C)cc3)C2)cc1 (stereo not drawn),,inactive: 28.5%
c1ccc(Nc2ccnc(Nc3ccccc3)n2)cc1,"inconclusive [activator, full curve, poor fit]",
Cc1nc2ccccn2c1C(=O)N/N=C/c1ccc([N+](=O)[O-])o1,"inconclusive [activator, single point]",
O=CN1CCN(C(=S)Nc2ccc(OC(F)F)cc2)CC1,,inactive: 5.03%
CCOc1ccc(C(=O)NCC(=O)Nc2cc(C)ccn2)cc1OCC,"inconclusive [activator, full curve, poor fit]",
CCOC(=O)Cc1csc(NC(=O)CC(C)(C)C)n1,"inconclusive [activator, partial curve, poor fit]",
Cc1cc(C(=O)Nc2ccc(Br)cc2)cs1,"inconclusive [activator, partial curve]",
CCCCN1CC(O)=C(c2nc3ccccc3[nH]2)C1=N,"inconclusive [activator, partial curve, poor fit]",
O=C(/C=C/c1ccco1)Nc1nc(-c2ccccc2)cs1,"inconclusive [activator, partial curve, poor fit]",
COc1cccc(/C=N/Nc2ccnc(=O)[nH]2)c1O,"inconclusive [activator, full curve, poor fit]",
O=C(Nc1c2c(nn1-c1ccc(Cl)cc1)CS(=O)(=O)C2)c1ccc2c(c1)OCO2,,inactive: -15.9%
O=C(NNC(=O)c1ccccc1Br)c1cccc(Cl)c1,"inconclusive [activator, partial curve, poor fit]",
Cc1ccc(NC(=O)CCCN2C(=S)NC(C)(C)CC2C)cc1 (stereo not drawn),"inconclusive [activator, single point]",
Cc1scc(C(=O)N/N=C/c2ccc(Cl)s2)c1C,"inconclusive [activator, partial curve, poor fit]",
Cc1ccc(NC(=O)C(c2ccccc2)N2CCN(CC(=O)N3CCOCC3)CC2)cc1Cl (stereo not drawn),"inconclusive [activator, partial curve, poor fit]",
COc1ccccc1N(CC(=O)Nc1ccccc1C(F)(F)F)S(=O)(=O)c1cccs1,,inactive: -9.96%

SMILES,Potency,"activity change, positive = activation"
COc1ccc(OC(=O)c2cn(C)nc2C(F)(F)F)cc1,"inconclusive [activator, partial curve, poor fit]",
O=C(CCl)Nc1ccc(S(=O)(=O)NC2=NCCCCC2)cc1,,inactive: -32.2%
CCCn1c(C)cc(C(=O)COC(=O)c2ccc[nH]c2=O)c1C,"inconclusive [activator, full curve, poor fit]",
O=C1/C(=C/c2ccc(O)c([N+](=O)[O-])c2)SC(=S)N1Cc1ccccc1,,inactive: 4.81%
CCOC(=O)c1c(N)sc2c1CCC1C(=O)N(C3CCCCC3)C(=O)C21 (stereo not drawn),"inconclusive [activator, full curve]",
O=C(CCCl)Nc1nnc(SCC(=O)NC2CCCC2)s1,,inactive: -17.9%
CCOC(=O)c1ccc(NC(=S)N2CCC(O)CC2)cc1,"inconclusive [activator, partial curve, poor fit]",
COc1ccc(OC)c(C(=O)COC(=O)c2ccc(C)o2)c1,"inconclusive [activator, single point]",
Cc1ccc(NC(=O)Cc2cccs2)cc1Cl,"inconclusive [activator, single point]",
CCn1c2ccccc2c2cc(NC(=O)COc3ccccc3OC)ccc21,,inactive: -11.2%
N#Cc1c(/N=C/c2ccc(-c3ccccc3C(=O)O)o2)sc2c1CCCC2,"inconclusive [activator, full curve, poor fit]",
COc1ccc(NC(=O)C2CC(=O)N/C(=N/N=C/c3ccco3)S2)cc1 (stereo not drawn),,inactive: 0.885%
Clc1ccc2nc(N3CCCCC3)sc2c1,"inconclusive [activator, partial curve, poor fit]",
CCn1nc(C(=O)Nc2nc(-c3ccccn3)cs2)c2ccccc2c1=O,,inactive: -1.77%
O=C(COc1ccc2c(c1)OCO2)NC12CC3CC(CC(C3)C1)C2,"inconclusive [activator, full curve, poor fit]",
COc1ccc2[nH]c(C(=O)Nc3ccc(F)cc3Br)cc2c1,,inactive: 5.86%
CC(C)(C)c1ccc(C(=O)NCC(=O)N2CCCC2)cc1,"inconclusive [activator, full curve, poor fit]",
Cn1c(=O)oc2cc(S(=O)(=O)N3CCCC(C(=O)NC4CCCc5ccccc54)C3)ccc21 (stereo not drawn),,inactive: -0.732%
Cc1cccc(NC(=S)N(CCc2nc3cc(C)c(C)cc3[nH]2)Cc2cccnc2)c1,,inactive: 3.9%
COC(=O)c1sc2nc3c(cc2c1N)COC(C)(C)C3,"inconclusive [activator, partial curve, poor fit]",
C/C(=N\OC(=O)c1ccc(F)cc1)c1sc(-c2ccccc2)nc1C,"inconclusive [activator, partial curve, poor fit]",
Cc1nc2ccc(NC(=O)CSc3ccccc3)cc2s1,"inconclusive [activator, full curve, poor fit]",
Cc1cccc(NC(=O)COC(=O)c2ccc(S(=O)(=O)N3CCCCCC3)cc2)c1,,inactive: 3.59%
COc1ccc2nc(NC(C)=O)sc2c1,"inconclusive [activator, partial curve, poor fit]",
OCC1(Cc2ccc(Cl)cc2)CCN(Cc2ccccc2F)CC1,,inactive: 0.571%

SMILES,Potency,"activity change, positive = activation"
O=c1[nH]c2ccccc2n1CCC1CCCCC1,,inactive: -15.8%
COc1cc(/C=N/N2CCOCC2)ccc1OCc1ccc(Cl)cc1,,inactive: 1.05%
O=C(Nc1ccccc1)C1=C(c2ccccc2)S(=O)(=O)CCS1(=O)=O,,inactive: -8.9%
CCOC(=O)c1sc(NC(=O)c2cc(-c3ccccc3C)nc3ccccc23)c(C#N)c1C,,inactive: 9.33%
COc1ccc(OC)c2nc(-c3ccc4c(c3)OCO4)ccc12,"inconclusive [activator, full curve, poor fit]",
O=C(CSc1nc2ccccc2[nH]1)c1ccccc1F,"inconclusive [activator, full curve, poor fit]",
CCn1nnnc1SCC(=O)c1ccc(C)cc1,"inconclusive [activator, partial curve]",
Cc1cc(C(=O)N/N=C/c2ccccc2Br)no1,,inactive: 23.7%
Nc1nc(-c2ccco2)nn1S(=O)(=O)c1ccccc1,,inactive: -0.0544%
CCOc1ccc(NC(=O)CCNC(=O)c2ccc(Br)cc2)cc1,"inconclusive [activator, partial curve, poor fit]",
CC(NC(=O)Cn1c(NCCO)nc2ccccc21)C1CC2CCC1C2 (stereo not drawn),,inactive: -2.03%
CCOc1ccc2nc(/N=C/c3nc(-c4ccc(Br)cc4)oc3O)sc2c1,,inactive: 15.2%
COc1ccc(CCNC(=O)NC(C(F)(F)F)C(F)(F)F)cc1OC,"inconclusive [activator, single point]",
Fc1cc(F)c2nc(N3CCCCC3)sc2c1,"inconclusive [activator, single point]",
Cc1[nH]c2ccccc2c1C(=O)/C=C/c1ccccc1,"inconclusive [activator, full curve, poor fit]",
O=C(CSc1n[nH]c(-c2ccccc2)n1)Nc1ccc(Br)cn1,"inconclusive [activator, single point]",
O=S(=O)(c1cccs1)N1CCN(Cc2nc3ccccc3s2)CC1,"inconclusive [activator, full curve, poor fit]",
O=C(Nc1ccc(N=Nc2ccccc2)cc1)c1ccc(Cl)cc1Cl,,inactive: -2.66%
O=C(/C=C/c1cccc(Cl)c1)NCCc1ccccc1,"inconclusive [activator, full curve, poor fit]",
COc1cccc(NC(=S)NCc2cccnc2)c1,,inactive: -0.0294%
CCOC(=O)c1cnc(-n2nc(C)cc2C)nc1NC1CCCCC1,"inconclusive [activator, single point]",
Cc1ccc[n+](CC(=O)Nc2ccc(C)c(C)c2)c1,"inconclusive [activator, single point]",
C/C(CC(=O)N1CCN(C=O)CC1)=N\NC(=O)c1cc2ccccc2cc1O,"inconclusive [activator, full curve, poor fit]",

# — PubChem BioAssay AID504706 (National Center for Advancing Translational Sciences (NCATS), 2011)
